Data as given in publication PMC11840927, “Frataxin Traps Low Abundance Quaternary Structure to Stimulate Human Fe–S Cluster Biosynthesis” (Biochemistry, 2025).

Experiments:
[1] = biological target: the molecule itself; test: native MS; protomer exchange: 1:1 mix of 15N- and 14N-labelled SDAec (or His-tagged and untagged IscS), room temperature, 200 mM ammonium acetate pH 8.5, EMR Orbitrap; ratio of exchanged dimer to the sum of unexchanged dimers; α2β2γ2 (or IscS dimer) to protomers and back
[2] = biological target: T1, NFS1(Δ1–55) with N-terminal His6 tag (human, UniProt Q9Y697, covalently attached PLP); test: as above; conditions: both partners purified
T1 construct: NFS1, human cysteine desulfurase, Δ1–55 (residues 56 to the C-terminus); The NFS1 chain of m1; also called α subunit; source: recombinant, co-purified within the SDAec complex; not shown: His6, N-terminal, kept
T1 sequence (Q9Y697 56-457, stated change not applied): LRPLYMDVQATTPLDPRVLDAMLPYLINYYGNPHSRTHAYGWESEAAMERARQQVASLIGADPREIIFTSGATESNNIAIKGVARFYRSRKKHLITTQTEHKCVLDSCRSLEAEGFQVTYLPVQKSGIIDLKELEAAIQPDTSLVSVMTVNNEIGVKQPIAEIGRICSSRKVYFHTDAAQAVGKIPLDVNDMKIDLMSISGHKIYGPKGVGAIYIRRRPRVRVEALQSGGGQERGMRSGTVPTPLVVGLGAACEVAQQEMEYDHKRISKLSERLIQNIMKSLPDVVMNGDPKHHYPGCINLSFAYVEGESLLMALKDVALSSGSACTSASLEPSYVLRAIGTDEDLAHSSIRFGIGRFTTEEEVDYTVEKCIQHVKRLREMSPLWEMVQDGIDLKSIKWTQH

B1: NFS1(Δ[…])-ISD11(S11A)-ACPec complex with the His6 tag on NFS1 cleaved by TEV protease (complex)
chain 1: [about 400 residues with changes omitted]
chain 2: [about 100 residues with changes omitted]
chain 3: MSTIEERVKKIIGEQLGVKQEEVTNNASFVEDLGADSLDTVELVMALEEEFDTEIPDEEAEKITTVQAAIDYINGHQA
modifications: covalently attached PLP | acyl-4′PPT (assumed mass 523 Da)
notes: single glycine residue before residue 56 left after TEV cleavage; NFS1, human cysteine desulfurase, Δ[…] (residues 56 to the C-terminus); ISD11 (LYRM superfamily), human, S11A; Escherichia coli acyl-carrier protein (ACPec) associated with NFS1-ISD11; A TEV site was introduced by mutagenesis into the original NFS1 plasmid; also called untagged SDAec; cleaved SDAec; not shown: His6, N-terminal, …
exchanged-to-unexchanged ratio at 24 h [1]: 0.79

B2: ISD11(S11A) (natural protein)
chain: not shown
notes: ISD11 (LYRM superfamily), human, S11A; The ISD11 chain of m1; also called β subunit; source: recombinant, co-purified within the SDAec complex
binding result [2]: binds
